According to the supplement of paper PMC10126150:
Values marked as one replicate rest on one cluster of the flow cell; about a third of the high ones do not repeat.

Test system: ATP
Test: switch fluorescence ratio, 500 uM ATP over buffer (Cy3 cluster intensity, sum of 5 cycles each) (fold (ratio)); higher = stronger signal-on switching upon ATP binding; sequences stand for … in TCGTCGGCAGCGTCAGATGTGTATAAGAGACAGTTTTTTTTTTTTTTTTTTTTTTTTT…TC
Conditions: aptamer strand: ATP DNA aptamer (quencher-CACCTGGGGGAGTATTGCGGAGGAAGG + anchor), 100 nM annealed; ATP concentration: 500 uM; one replicate
Procedure, shortened: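 Per cluster, summed Cy3 intensity from the target cycles was divided by that from the buffer cycles to give the fluorescence ratio, then averaged per switch-domain sequence. Clusters outside 100-1000 RFU were excluded. The Cy3-labelled switching-strand clusters, on a modified Illumina MiSeq flow-cell, were annealed to 100 nM quencher-labelled ATP aptamer and imaged in selection buffer, then after 15 min with 500 uM ATP at 22 °C, for five cycles with NaOH stripping and re-annealing between them.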
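Further: ATP exposure 15 min at 22 °C before imaging.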

| Sequence | switch fluorescence ratio |
| --- | --- |
| AGTTGTTGTC | 0.963 |
| AAGAGACGTT | 0.947 |
| TCCTAGTTAT | 1.08 |
| AATGAAAGAA | 1.01 |
| ACTCCGGTGG | 1.08 |
| GTGAAATTAG | 1 |
| GAGGGACAAG | 1.04 |
| GCTTTGTGCT | 0.984 |
| AACTCATTGG | 0.985 |
| TTCCGTTTGT | 0.984 |
| AATGATACTG | 0.97 |
| CAGCTAACTC | 1.62 |
| GTGCCAGGTA | 1.06 |
| AAGTTTGTG | 1 |
| GATCATGCAT | 1.02 |
| ACTCCGTCAG | 6.95 |
| TGTCATGCGT | 0.934 |
| ACTCATTGTC | 1.07 |
| TCAGGCACTC | 1.01 |
| ACAGAACATT | 1.04 |
| ATTTCGAGGC | 1.05 |
| AGCGACTTTT | 0.998 |
| CGTAGGGCTC | 1.04 |

| Sequence | switch fluorescence ratio |
| --- | --- |
| CGCTGCTTCA | 1.05 |
| AGGGCGGGAG | 0.989 |
| ATCTTGTAGT | 1.02 |
| AGAAGGAAAC | 1.03 |
| ATCGGTTAGA | 0.964 |
| AGCCCGCCTG | 0.98 |
| GGGCCACCTG | 0.992 |
| TGTTGGTGT | 1.03 |
| GCTAGAAGAT | 0.977 |
| TATTACTTTT | 1.01 |
| TCCAAGCGGT | 1.39 |
| ATGCGATATG | 1.03 |
| ACCGGTTCCT | 0.968 |
| TATATGTCC | 1.05 |
| GAAGGGCTAA | 0.978 |
| AGTCTATGAA | 0.975 |
| ACCGGTGATA | 1.04 |
| GCTAGGGTAC | 1.05 |
| TGGTATGGTC | 1.02 |
| CGGTGTATGT | 0.965 |
| TCACTCCAAA | 1.12 |
| CAGTACCACA | 1.05 |
| AAGTAGGGTC | 1.04 |

| Sequence | switch fluorescence ratio |
| --- | --- |
| TAGTAACCGG | 1.01 |
| TGGGTCCG | 1.03 |
| TGGGGTCACA | 1.03 |
| CGGTTGGTCT | 1.04 |
| AAAATCATGA | 0.972 |
| TCCAGTGAAT | 1.07 |
| GTTAGGGATT | 1.02 |
| CAAGTGTTTT | 1.03 |
| GCCAACTAGG | 1.01 |
| TTTTCTTCGT | 0.983 |
| TTGGTCTACC | 0.946 |
| TGCCACAGGA | 1.05 |
| AGCTCTTTGC | 1.01 |
| TATGTTTTG | 1.01 |
| TCTTTGGAAG | 1.4 |
| GAGCAAAATA | 1.03 |
| AATCGTAAAG | 1.05 |
| AAACGAGGAC | 0.952 |
| AACCGAAACG | 1.13 |
| TGGCAGGATA | 0.97 |
| TGGGAATTTG | 1.01 |
| CCCGGAACAT | 1.11 |
| TGTATGCATC | 0.975 |

| Sequence | switch fluorescence ratio |
| --- | --- |
| GTCGACATTT | 0.972 |
| CACATCAAAT | 1.02 |
| CATTTTCGAG | 0.964 |
| CAGCTGCCGC | 1.03 |
| TATGTGTCTA | 0.991 |
| GGAGTAATCC | 1.19 |
| TGATGTTGCA | 1 |
| TAGCGACAAT | 1.08 |
| TACACATGGT | 1.02 |
| TGTTAGAAGC | 1.01 |
| ATGGGTGCTA | 0.955 |
| CCAGAAAAAG | 1.01 |
| ATAAACGCG | 0.987 |
| TTATGTTTAT | 1.01 |
| TATTGATTCG | 1.04 |
| GTAGGATCTG | 0.968 |
| CCCGGAGATG | 1.04 |
| TACTAGTTT | 1.5 |
| CTGGCATGCT | 0.988 |
| AGCGGTGACA | 0.987 |
| CCATTGGACA | 0.995 |
| GGTCATCGGC | 1.05 |
| CTGAATGAG | 0.955 |

| Sequence | switch fluorescence ratio |
| --- | --- |
| TCAGATTTTT | 0.931 |
| ATAGACAGCC | 1.09 |
| GCTGGTGAGG | 0.986 |
| GCATCCCCT | 1.13 |
| GTATGAATTT | 0.99 |
| AAGTCGGGGA | 1 |
| GATCTCATCT | 0.963 |
| TTGAGTGCGA | 0.948 |
| GCGTCTGATG | 0.978 |
| GAGGCTCATA | 1.02 |
| ACGGGGAATC | 1.13 |
| ACTTTAGTGA | 0.907 |
| GAATCAAGTC | 0.978 |
| CTTTCCAATT | 1.07 |
| ACGGTAAGC | 1.21 |
| TTTGTCACCC | 1.07 |
| AACAGGAGAC | 0.993 |
| CAGCAACGGC | 1.23 |
| TGGGCACGCG | 0.977 |
| GCGTTTTAAG | 1.02 |
| ACGTTGAGAC | 1.05 |
| TGGGCCTCAA | 1.03 |
| AAAGATGGAA | 0.968 |

| Sequence | switch fluorescence ratio |
| --- | --- |
| GCGCTAGGGA | 1 |
| CGAGTGTCTC | 1.04 |
| TAAGTTAAAT | 1.01 |
| CCAATGTTG | 1.01 |
| CATTCGGGGA | 0.987 |
| CCGGACCCCA | 1.31 |
| GACCTTTATG | 0.927 |
| CTCTTTCCCC | 1.03 |
| AACTAGTCGG | 1.02 |
| CGCTGCATAT | 3.21 |
| ATTTCTCAAG | 0.974 |
| GCGGGGCTTC | 0.977 |
| TCCACGGTGC | 2.16 |
| TAGCCGTACG | 0.992 |
| CGGCTGAGCT | 1.01 |
| GGACCTTTGC | 1.03 |
| CGATTGGATC | 0.99 |
| GTCTTTTCAT | 0.99 |
| GTGAATTAG | 1.01 |
| ACGATGTGTA | 1 |
| TGGGTCGCAG | 0.973 |
| TTTATTGATC | 1.02 |
| ACTGGGAAGG | 1.01 |

| Sequence | switch fluorescence ratio |
| --- | --- |
| GCGGGTGTGG | 1.08 |
| ACAGTTGGGG | 1.04 |
| TCCCTTTAGG | 1.01 |
| GAATGTACTT | 1.06 |
| CAGGGGCACC | 1 |
| TACAGTCGG | 0.995 |
| TTCAACTAAG | 1.06 |
| TCCATGATCT | 1.04 |
| TCTTCGTGAA | 4.06 |
| AAACGGCCCA | 1.04 |
| CGATCGTTAC | 3.43 |
| CGCTCGTAGG | 0.983 |
| TCGATTCCT | 1.04 |
| AGACGGATGA | 1 |
| ATCGAGGA | 0.964 |
| AGCACGGCAA | 1.21 |
| AAGTAGCCCA | 1.02 |
| GACACAACC | 1.3 |
| AACTTAGAAT | 0.947 |
